Measured values from patent publication US20250281631A1, “ANTIBODY-DRUG CONJUGATES AND PREPARATION METHODS AND USE THEREOF” (SICHUAN KELUN-BIOTECH BIOPHARMACEUTICAL CO., LTD, priority 2022, published 2025).

B1: 47A3-A-07-A: ADC of antibody 47A3E3-hIgG1 conjugated to drug-linker A-07-A, DAR 6.27 (conjugate)
heavy: EVQLQESGPGLVKPSQTLSLTCAISGDSVSSSQSTWNWIRQSPSRGLEWLGRTFYRSRWYNDYALSMKSRITINPDTSKNQFSLQLNPVTPEDTAVYYCARDTYYYGSGGFDYWGQGSRVTVSSASTKGPSVFPLAPSSKSTSGGTAALGCLVKDYFPEPVTVSWNSGALTSGVHTFPAVLQSSGLYSLSSVVTVPSSSLGTQTYICNVNHKPSNTKVDKRV[in this place human IgG1 Fc]
light: DIQMTQSPSTLSASVGDRVTITCRASQSLSRWLAWYQQKPEKAPKLLIYKASSLESGVPSRFSGSGSGTEFTLTISTLQPDDFATYYCQQYKNYYSFGQGTKLEIKRTVAAPSVFIFPPSDEQLKSGTASVVCLLNNFYPREAKVQWKVDNALQSGNSQESVTEQDSKDSTYSLSSTLTLSKADYEKHKVYACEVTHQGLSSPVTKSFNRGEC
B2: 100H7-A-07-A (conjugate)
heavy: EVQLVESGGGVVLPGRSLRLSCAASGFTFSRNAMHWVRQAPGKGLEWVAVIWHDGSNKYYGDSVKGRFTISRDNSKNTLYLQMDSLTAEDTAVYYCARDRGASDFRGQGTLVTVSSASTKGPSVFPLAPSSKSTSGGTAALGCLVKDYFPEPVTVSWNSGALTSGVHTFPAVLQSSGLYSLSSVVTVPSSSLGTQTYICNVNHKPSNTKVDKRV[in this place human IgG1 Fc]
light: DIQMTQSPSTLSASVGDRVTITCRASQSINNWLAWYQQKPEKAPKLLIYKASSLESGVPSRFSGSGSGTEFTLTISSLQPDDFATYYCQQYNSYSLTFGGGTKVEIKRTVAAPSVFIFPPSDEQLKSGTASVVCLLNNFYPREAKVQWKVDNALQSGNSQESVTEQDSKDSTYSLSSTLTLSKADYEKHKVYACEVTHQGLSSPVTKSFNRGEC

How the values were obtained:
NCI-H358 cells = test: Cell affinity of anti-human HER3 antibodies and ADCs by flow cytometry; assay type: binding; conditions: Table 32
From the text: (§1) 1. Detection of Cell Affinity of Anti-Human HER3 Antibodies and their Drug Conjugates
(§2) The affinity of anti-human HER3 ADC to MDA-MB-453, NCI-H358, KPL-4, and A431 cells was detected by flow cytometry (Beckman, model Cytoflex).
(§3) Adherent MDA-MB-453, NCI-H358, KPL-4, A431 cells were digested with Tryple (manufacturer: Gibco) solution, counted, and an appropriate amount of the cells were taken, washed twice with 1×PBS, resuspended in 1% BSA in PBS solution, and then transferred to a 96-well sharp-bottom plate, 50 μl per well; candidate antibodies and drug conjugates thereof were diluted with 1% BSA in PBS solution by 3-fold or 2.5-fold serial dilution starting from 5 μg/mL, and then 50 μl of the diluted antibody or antibody-drug conjugate was added to the sharp-bottom plate containing the cells, and incubation was carried out at 4° C. for 40 minutes; the cells were washed twice with PBS, then added with 50 μl of diluted secondary antibody to each well, mixed, and incubated at 4° C. for 30 minutes; the cells were washed with PBS twice, then resuspended in 400 μl of PBS and detected by flow cytometry. Data processing: the average fluorescence signal values were exported, and then input into GraphPad Prism 6 software to calculate EC50. The results were shown in Table 32 and FIGS. 1A, 1B, 1C, and 1D. […] Moreover, when the naked antibody was formed into ADC through conjugation, the affinity to cells was less affected, and the affinity of 22B6 formed into ADC by conjugation was still the highest.

A431 cells = test: as above; assay type: binding; conditions: Table 32
From the text: as §1, §2, §3

KPL-4 cells = test: as above; assay type: binding; conditions: Table 32
From the text: as §1, §2, §3

[1] = test system: NCI-N87 gastric cancer xenograft model; test: In vivo drug efficacy in NCI-N87 CDX model; set-up: species or system female BALB/c-nu mice; conditions: 3 mg/kg; for T/C / TGI / Tumor volume (x ± SEM): tail vein injection Day 0, 4, 7, Day 32; for growth inhibition rate (TGI): tail vein, Day 0, Day 4 and Day 7, Day 32
From the text: The following formula was used to calculate the tumor growth inhibition rate TGI (%), which was used to evaluate the tumor inhibitory efficacy:
[formula] • wherein, • VTend represented a mean value of tumor volume at the end of the experiment in a treatment group • VTstart represented a mean value of tumor volume at the beginning of the administration in a treatment group • VCend represented a mean value of tumor volume at the end of the experiment in the negative control group • VCstart represented a mean value of tumor volume at the beginning of the administration in the negative control group
6. Detection of In Vivo Drug Efficacy of Anti-Human HER3 Antibody-Drug Conjugates in N87 Model
NCI-N87 cells were cultured at 37° C. with 5% CO2 in RPMI1640 medium containing 10% fetal bovine serum. The NCI-N87 cells in the exponential growth phase were collected, resuspended in PBS to an appropriate concentration, and inoculated subcutaneously in female BALB/c-nu mice to establish a human gastric cancer model. When the average volume of tumor was about 120 mm^3, the animals are randomly divided into groups according to the tumor size, including: vehicle control group, hIgG1-A-07-A 3 mg/kg group, ADC 22B6-A-07-A-1 3 mg/kg group, ADC 47A3-A-07-A 3 mg/kg group, and ADC 100H7-A-07-A 3 mg/kg group. All animals were administered via injection through tail vein on Day 0, Day 4 and Day 7, and 3 times in total. After administration, the tumor diameter was measured twice a week with a vernier caliper, and the tumor volume was calculated according to the following formula: V=0.5 a×b^2, wherein a and b represented the long and short diameters of tumor, respectively, and the death of animals was observed and recorded every day.

Molecule	EC50 cell affinity (NCI-H358 cells) [µg/mL]	EC50 cell affinity (A431 cells) [µg/mL]	EC50 cell affinity (KPL-4 cells) [µg/mL]	T/C [1] [%]	TGI [1] [%]	Tumor volume (x ± SEM) [1] [mm^3]	inhibitor effect on the tumor growth ([1]; result in words)	growth inhibition rate (TGI) [1] [%]
B1	0.1576	0.0656	0.1246	60.12	47.24	468.82 ± 36.48	significant inhibitor effect on the tumor growth	47.24
B2	0.4274	0.2659	0.2744	69.52	36.04	542.62 ± 58.59		36.04
